# According to the supplement of paper PMC4604168 (melanoma cell lines):
# This is one part of the list. Most values come without repeats; read them as rough.
# How the values were obtained:
# Test in all cases: cell count relative to DMSO control; melanoma cells; higher = more viable cells
# Conditions in all cases: library dose: low library concentration; 72 h
# COLO792 = system: COLO792
# COLO800 = system: COLO800
# COLO829 = system: COLO829
# G361 = system: G361
# IPC-298 = system: IPC-298
# IST-MEL1 = system: IST-MEL1
# LB2518-MEL = system: LB2518-MEL
# LOXIMVI = system: LOXIMVI
# MEL-HO = system: MEL-HO
# 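Further: cell number obtained by counting DAPI-stained nuclei in high-throughput microscope images with image analysis software, screen run in 1,536-well plates.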
Compound,cell count (COLO792) [%],cell count (COLO800) [%],cell count (COLO829) [%],cell count (G361) [%],cell count (IPC-298) [%],cell count (IST-MEL1) [%],cell count (LB2518-MEL) [%],cell count (LOXIMVI) [%],cell count (MEL-HO) [%]
"Cn1c(Nc2ccc(C(F)(F)F)cc2)nc2cc(Oc3ccnc(-c4ncc(C(F)(F)F)[nH]4)c3)ccc21 + COc1cc(Nc2ncc(F)c(Nc3ccc4c(n3)NC(=O)C(C)(C)O4)n2)cc(OC)c1OC [Tamatinib] (first compound 0.08 µM, partner dose 0.4 µM)",51.2,84.6,88.7,75.7,76.7,94,58.6,45.1,92.7
"OCc1c[nH]c2ccccc12 [Indole-3-carbinol] + O=C1NC(=O)/C(=C/c2ccc(-c3ccc(F)cc3O)o2)S1 [AS252424] (first compound 0.8 µM, partner dose 1 µM)",90.7,97.8,115,103,95.3,98.6,92,80.2,97.5
"Cn1c(Nc2ccc(C(F)(F)F)cc2)nc2cc(Oc3ccnc(-c4ncc(C(F)(F)F)[nH]4)c3)ccc21 + C=CCn1c(=O)c2cnc(Nc3ccc(N4CCN(C)CC4)cc3)nc2n1-c1cccc(C(C)(C)O)n1 [MK1775] (first compound 0.08 µM, partner dose 0.02 µM)",35.9,69.5,65.4,61.9,51,88.6,48.8,70.2,76.5
"O=C(CCCCCCC(=O)Nc1ccccc1)NO [vorinostat] + COc1cc(Nc2ncc(F)c(Nc3ccc4c(n3)NC(=O)C(C)(C)O4)n2)cc(OC)c1OC [Tamatinib] (first compound 0.08 µM, partner dose 0.4 µM)",69.7,102,88.8,102,88.7,100,89,41.8,98.2
"Clc1ccc(Nc2nnc(Cc3ccncc3)c3ccccc23)cc1 [vatalanib] + O=C(Nc1ccccc1)c1cc([N+](=O)[O-])ccc1Cl [GW9662] (first compound 2 µM, partner dose 2 µM)",101,121,62.8,95.8,100,90.4,62.9,86.7,90.4
"Clc1ccc(Nc2nnc(Cc3ccncc3)c3ccccc23)cc1 [vatalanib] + O=S(=O)(c1ccccc1)N(CC(F)(F)F)c1ccc(C(O)(C(F)(F)F)C(F)(F)F)cc1 [T0901317] (first compound 2 µM, partner dose 1.4 µM)",109,130,74.8,93.1,87.2,100,101,118,87.7
"Nc1cccc2c1CN(C1CCC(=O)NC1=O)C2=O (stereo unspecified) [lenalidomide] + CO[C@@H]1[C@H](N(C)C(=O)c2ccccc2)C[C@H]2O[C@]1(C)n1c3ccccc3c3c4c(c5c6ccccc6n2c5c31)C(=O)NC4 [Midostaurin] (first compound 1 µM, partner dose 0.08 µM)",97.9,112,90.1,94.1,94.9,94.3,90.8,120,90.2
"Clc1ccc(Nc2nnc(Cc3ccncc3)c3ccccc23)cc1 [vatalanib] + COc1cc2ncnc(Nc3ccc(Oc4ccccc4)cc3)c2cc1OC [SrcI1] (first compound 2 µM, partner dose 2 µM)",77.8,138,101,96.6,95.1,98.1,117,92.8,110
"O=C(CCCCCCC(=O)Nc1ccccc1)NO [vorinostat] + NCC(=O)Nc1ccc(-n2nc(C(F)(F)F)cc2-c2ccc3c(ccc4ccccc43)c2)cc1 [OSU03012] (first compound 0.08 µM, partner dose 1 µM)",87.6,126,70.9,91.1,84.9,101,115,84.2,93.8
"O=C(CCCCCCC(=O)Nc1ccccc1)NO [vorinostat] + COc1cc2c(Oc3ccc4[nH]c(C)cc4c3F)ncnc2cc1OCCCN1CCCC1 [cediranib] (first compound 0.08 µM, partner dose 0.4 µM)",95.7,82.2,87.7,97.4,97,102,105,64.2,103
"C#Cc1cccc(Nc2ncnc3cc(OCCOC)c(OCCOC)cc23)c1 [erlotinib] + COc1cc2c(Oc3ccc4[nH]c(C)cc4c3F)ncnc2cc1OCCCN1CCCC1 [cediranib] (first compound 0.8 µM, partner dose 0.4 µM)",75.8,63.6,98.7,91.5,104,106,122,86.9,92.2
"Cn1c(Nc2ccc(C(F)(F)F)cc2)nc2cc(Oc3ccnc(-c4ncc(C(F)(F)F)[nH]4)c3)ccc21 + COc1cc2c(Oc3ccc4[nH]c(C)cc4c3F)ncnc2cc1OCCCN1CCCC1 [cediranib] (first compound 0.08 µM, partner dose 0.4 µM)",47.6,106,105,76,57.9,93.9,47.4,109,74.4
"COCC[n+]1c2c(n(Cc3cnccn3)c1C)C(=O)c1ccccc1C2=O + OCCn1cc(-c2cnc3nnn(Cc4ccc5ncccc5c4)c3n2)cn1 [PF04217903] (first compound 0.0004 µM, partner dose 1 µM)",112,60,86.3,100,107,78.6,85.8,75.6,98.4
"Cn1c(Nc2ccc(C(F)(F)F)cc2)nc2cc(Oc3ccnc(-c4ncc(C(F)(F)F)[nH]4)c3)ccc21 + NCC(=O)Nc1ccc(-n2nc(C(F)(F)F)cc2-c2ccc3c(ccc4ccccc43)c2)cc1 [OSU03012] (first compound 0.08 µM, partner dose 1 µM)",36.8,108,84.2,72.6,53.9,82.8,48.5,96,72.5
"C#Cc1cccc(Nc2ncnc3cc(OCCOC)c(OCCOC)cc23)c1 [erlotinib] + NC(=O)Nc1cc(-c2cccc(F)c2)sc1C(=O)N[C@H]1CCCNC1 [AZD7762] (first compound 0.8 µM, partner dose 0.02 µM)",74.5,79,105,95.8,100,110,142,46.5,93.9
"OCc1c[nH]c2ccccc12 [Indole-3-carbinol] + COC(=O)c1sccc1S(=O)(=O)Nc1ccc(Nc2ccccc2)cc1OC [GSK0660] (first compound 0.8 µM, partner dose 1 µM)",111,139,113,110,106,103,89.7,113,108
"Cn1c(Nc2ccc(C(F)(F)F)cc2)nc2cc(Oc3ccnc(-c4ncc(C(F)(F)F)[nH]4)c3)ccc21 + CN(C)S(=O)(=O)c1ccc2c(c1)/C(=C/c1cc3c([nH]1)CCCC3)C(=O)N2 [SU6656] (first compound 0.08 µM, partner dose 0.4 µM)",36.6,86.5,78.7,60.5,49.8,82.1,44.9,93.7,78.2
"COCC[n+]1c2c(n(Cc3cnccn3)c1C)C(=O)c1ccccc1C2=O + Cc1ccc(NC(=O)c2cccc(N(C)C)c2)cc1NC(=O)c1ccc(O)cc1 [ZM336372] (first compound 0.0004 µM, partner dose 2 µM)",120,80.4,117,116,75.3,78.8,81.5,73.2,99
"OCc1c[nH]c2ccccc12 [Indole-3-carbinol] + COc1cc2c(Oc3ccc4[nH]c(C)cc4c3F)ncnc2cc1OCCCN1CCCC1 [cediranib] (first compound 0.8 µM, partner dose 0.4 µM)",91.5,79.3,125,90.5,93.4,107,81.3,126,100
"Nc1cccc2c1CN(C1CCC(=O)NC1=O)C2=O (stereo unspecified) [lenalidomide] + O=C(O)c1ccc(-c2c[nH]c3ncc(-c4ccccc4)cc23)cc1C1CCCC1 [GSK650394] (first compound 1 µM, partner dose 0.16 µM)",103,116,108,110,95.1,104,91.3,47.4,103
"OCc1c[nH]c2ccccc12 [Indole-3-carbinol] + O=C(Nc1ccccc1)c1cc([N+](=O)[O-])ccc1Cl [GW9662] (first compound 0.8 µM, partner dose 2 µM)",102,82.8,100,95.9,89,96.4,112,69.5,93.8
"Clc1ccc(Nc2nnc(Cc3ccncc3)c3ccccc23)cc1 [vatalanib] + Cc1cc(N2CCOCC2)cc2[nH]c(-c3c(NC[C@@H](O)c4cccc(Cl)c4)cc[nH]c3=O)nc12 [BMS536924] (first compound 2 µM, partner dose 0.2 µM)",86.7,45.5,119,106,99.4,100,88.9,75.8,93.1
"O=C(CCCCCCC(=O)Nc1ccccc1)NO [vorinostat] + CN(C)S(=O)(=O)c1ccc2c(c1)/C(=C/c1cc3c([nH]1)CCCC3)C(=O)N2 [SU6656] (first compound 0.08 µM, partner dose 0.4 µM)",94.6,96.7,102,92.4,96.4,97.6,85.8,129,99.8
"OCc1c[nH]c2ccccc12 [Indole-3-carbinol] + N#Cc1c(O)c2c(-c3ccc(-c4ccccc4O)cc3)csc2[nH]c1=O [A769662] (first compound 0.8 µM, partner dose 2 µM)",106,123,82.7,112,103,97.9,101,93.7,105
